Measured values: PubChem BioAssay AID485281 (National Center for Advancing Translational Sciences (NCATS), 2010)
The whole screen tested about 350,000 compounds, of which about 260 (0.074%) were called active. The inconclusive results got no clear call from the source; some entries with a clear call stand among them for comparison. Calls come from the whole dose curve; as a rule, active = well fitted inhibition curve with a large enough effect; inconclusive = small, poorly fitted or top-dose-only effect; inactive = no such curve, though single readings can be large or run the other way. Where the call is inconclusive, the potency comes from a doubtful curve fit.

biological target: Ferritin light chain (Equus caballus) (UniProt P02791); test: qHTS Assay for Identification of Novel General Anesthetics; conditions: apoferritin/1-aminoanthracene competitive binding, fluorescence; activity change, negative = displacement: at 77.5 µM (top of the series); note: nearly all actives have a fitted effect of over 20% in size
UniProt P02791, sequence (P02791 whole entry, looked up): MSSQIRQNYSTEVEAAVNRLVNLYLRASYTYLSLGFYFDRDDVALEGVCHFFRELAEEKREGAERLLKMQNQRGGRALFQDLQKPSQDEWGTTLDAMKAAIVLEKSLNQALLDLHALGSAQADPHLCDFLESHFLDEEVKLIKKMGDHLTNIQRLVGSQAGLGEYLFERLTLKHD
How it was run: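 Read-out: endpoint 1-AMA fluorescence, excitation 380 nm and emission 535 nm, after compounds sit 10 min at room temperature with 10 uM horse-spleen apoferritin in 50% saturated 1-AMA/PBS. Values come from four-parameter Hill fits.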
% is set by controls: 0 for no effect and ±100 for the full control effect; potency is the fitted concentration of half-maximal effect; tags give direction and shape of the fitted curve.

SMILES	Potency	activity change, negative = displacement
Nc1c(C(=O)NCc2ccc(Cl)cc2Cl)nnn1Cc1ccc(Br)cc1	inconclusive: 3.98 µM [inhibitor, full curve]	
CCCn1ccc2c(OCC(=O)Nc3cc(C)ccc3C)cccc2c1=O	inactive	
C=CCSc1nnc(N2C(=O)C(O)=C(C(=O)c3ccco3)C2c2ccccc2F)s1 (stereo not drawn)		inconclusive: -24.4% [inhibitor]
O=C1c2ccccc2C(=O)N1CCSc1nnc(-c2ccco2)n1Cc1ccccc1	inconclusive: 56.2 µM [inhibitor, single point]	
Cc1nc2cc(C(F)(F)F)ccc2n1CCNc1nc(-c2cc(Cl)c(N)c(Cl)c2)cs1	inconclusive: 14.1 µM [inhibitor, partial curve]	
Cc1sc(N2C(=O)C3C4C=CC(C4)C3C2=O)c(C#N)c1C (stereo not drawn)	inconclusive: 44.7 µM [inhibitor, single point]	
CSc1ccc(CCNC(=O)CCc2nnc3ccc(N4CCOCC4)nn23)cc1	inactive	
N/C(=N\OC(=O)c1ccc2ccccc2c1)c1ccccn1	inactive	
Cc1ccc(Nc2c(-c3ccc(N(C)C)cc3)nc3nc[nH]n23)cc1	inconclusive: 8.91 µM [inhibitor, full curve]	
CC(=O)c1ccc(S(=O)(=O)Nc2ccc(-c3ccc(N4CCCCCC4)nn3)cc2)cc1	inconclusive: 12.6 µM [inhibitor, partial curve]	
CCn1c(SCC(=O)N2CCCc3ccccc32)nnc1-c1c[nH]c2ccccc12	inconclusive: 17.8 µM [inhibitor, partial curve]	
O=[N+]([O-])c1ccccc1NCCOc1ccccc1	inconclusive: 50.1 µM [inhibitor, single point]	
COc1cccc(-c2nn3c(=O)cc(CN4CCN(S(=O)(=O)c5ccc(C)cc5)CC4)nc3s2)c1	inconclusive: 14.1 µM [inhibitor, partial curve]	
O=c1oc2c(O)cccc2cc1-c1nc2ccccc2[nH]1	inactive	
O=C(Cc1ccccc1)Nc1sc2c(c1C(=O)Nc1ccccc1)CCCCC2	inactive	
O=C(CSc1ccc(F)cc1)N1CCC(c2nc3ccccc3s2)CC1	inconclusive: 22.4 µM [inhibitor, partial curve]	
CCN1C(=O)/C(=C/C=C2/SCCN2C)SC1=S	inconclusive: 2.82 µM [inhibitor, full curve, poor fit]	
O=C(OCc1nnc(-c2ccc(Cl)cc2)o1)C12CC3CC(CC(O)(C3)C1)C2	inconclusive: 28.2 µM [inhibitor, partial curve]	
COc1ccccc1NC(=O)CSc1nc(O)cc(=O)n1-c1ccccc1OC	inconclusive: 25.1 µM [inhibitor, partial curve]	
CCCCn1nnc(NC(=S)NC(=O)c2ccc(-c3cccc(Cl)c3Cl)o2)n1	inconclusive: 39.8 µM [inhibitor, partial curve]	
N#C/C(=C(/O)c1ccco1)c1nc2ccccc2s1	inconclusive: 39.8 µM [inhibitor, partial curve]	
O=C(CSc1nnc(-c2ccccc2F)n1CCc1ccccc1)Nc1ccc2[nH]c(=O)[nH]c2c1	inconclusive: 39.8 µM [inhibitor, partial curve]	

SMILES	Potency	activity change, negative = displacement
CC(C)OCCCNC(=S)N1CCC(C(=O)c2ccc(Cl)cc2)CC1	inconclusive: 56.2 µM [inhibitor, single point]	
O=Cc1ccc(O)c2ncccc12	inactive	
CCN(CC)C(=O)CSc1nc(C)cc(-c2cccs2)c1C#N	inconclusive: 20 µM [inhibitor, partial curve]	
Cc1cc2cc(CN(Cc3ccc4c(c3)OCO4)C(=O)c3cnccn3)c3nnnn3c2cc1C	inconclusive: 44.7 µM [inhibitor, single point]	
C/C(=C\C(=O)c1cccnc1)Nc1ccc(O)cc1	inactive	
CC(C)NC(=O)Cn1cc(C(=O)COc2ccccc2)c2ccccc21	inconclusive: 39.8 µM [inhibitor, single point]	
Cc1ccc2oc(-c3cccc(NC(=S)NC(=O)/C=C/c4ccco4)c3)nc2c1	inconclusive: 7.08 µM [inhibitor, partial curve]	
Cc1ccc(NC(=O)c2ccccc2)cc1-n1cnnn1	inconclusive: 35.5 µM [inhibitor, partial curve]	
CCOc1cc(/C=C2/SC(=S)N(Cc3ccccc3)C2=O)ccc1O	inconclusive: 22.4 µM [inhibitor, partial curve]	
Cc1ccc(NC2CCCN(C(=O)c3ccc(F)cc3)C2)cc1C (stereo not drawn)	inconclusive: 31.6 µM [inhibitor, partial curve]	
CN1CCC(Oc2ccc(Sc3ccccc3)cc2)CC1	inconclusive: 28.2 µM [inhibitor, partial curve]	
COc1cccc(OCc2cc(C(=O)NCc3ccc4c(c3)OCO4)no2)c1	inconclusive: 31.6 µM [inhibitor, single point]	
Cc1ccccc1NS(=O)(=O)c1ccc(OCC(=O)N2CCCC2)cc1	inactive	
O=C(Nc1nc(-c2ccccc2)cs1)c1cccc([N+](=O)[O-])c1	inconclusive: 14.1 µM [inhibitor, partial curve]	
O=C(c1cccnc1)N(c1cc2sc(=O)oc2c2ccccc12)S(=O)(=O)c1ccccc1	inconclusive: 28.2 µM [inhibitor, single point]	
CC/C(=N\NC(=O)CNC(=O)/C=C/c1ccco1)c1ccccc1	inconclusive: 25.1 µM [inhibitor, partial curve]	
CCC(C(=O)Nc1cc(C)on1)c1ccccc1 (stereo not drawn)	inconclusive: 25.1 µM [inhibitor, partial curve]	
N#Cc1ccccc1NC(=O)c1ccc2c(Cl)c3c(nc2c1)CCCC3	inactive	
CC(C)C(NC(=O)OC(C)(C)C)C(=O)NC(CCC(=O)OCc1ccccc1)C(N)=O (stereo not drawn)	inactive	
CSc1ccc(CN2CCN(S(=O)(=O)Cc3ccccc3)CC2)cc1	inconclusive: 28.2 µM [inhibitor, partial curve]	
S=C(NCc1ccccc1Cl)Nc1ccccc1Cl	inconclusive: 28.2 µM [inhibitor, partial curve]	
